Data taken from paper PMC3317836.
Where a chain is given by its changes, count along the chain named. In names and notes the source's numbering stands. These are yes or no findings as the source states them, for the method shown. In cells and extracts the contact can be indirect. Some binding calls cover weakened binding; strength is not graded here. Tags and fused reporters may be left off the sequences shown. Values belong to the binder of their own block, whether it stands above or below them.

Amino acid sequences for entries named in this document (tags omitted). A change or cut given only in a name is not applied to a line headed by its entry. Chains listed by the source or under a name are the forms on record and can include a tag or linker. Residues count along the entry.
GST-cyto-plexinB1 (wild type) (O43157, residues 1512-2135): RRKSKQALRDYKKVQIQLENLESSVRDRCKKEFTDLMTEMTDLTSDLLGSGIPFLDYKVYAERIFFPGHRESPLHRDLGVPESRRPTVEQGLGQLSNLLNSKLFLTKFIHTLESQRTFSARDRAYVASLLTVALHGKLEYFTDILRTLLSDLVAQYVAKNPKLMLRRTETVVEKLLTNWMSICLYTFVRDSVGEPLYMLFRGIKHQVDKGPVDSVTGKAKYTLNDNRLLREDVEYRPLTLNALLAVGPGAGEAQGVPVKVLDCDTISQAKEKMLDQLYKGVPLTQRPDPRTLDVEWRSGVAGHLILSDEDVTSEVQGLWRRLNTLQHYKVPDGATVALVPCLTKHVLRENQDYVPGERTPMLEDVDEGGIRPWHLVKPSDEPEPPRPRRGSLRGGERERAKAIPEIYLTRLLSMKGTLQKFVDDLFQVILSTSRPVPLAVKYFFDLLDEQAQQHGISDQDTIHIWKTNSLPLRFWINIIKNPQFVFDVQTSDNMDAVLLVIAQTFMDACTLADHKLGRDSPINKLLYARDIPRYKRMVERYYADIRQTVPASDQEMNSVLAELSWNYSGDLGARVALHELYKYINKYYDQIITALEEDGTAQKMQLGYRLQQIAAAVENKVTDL
GST-cyto-plexinB1 (L1815P) (O43157, form named): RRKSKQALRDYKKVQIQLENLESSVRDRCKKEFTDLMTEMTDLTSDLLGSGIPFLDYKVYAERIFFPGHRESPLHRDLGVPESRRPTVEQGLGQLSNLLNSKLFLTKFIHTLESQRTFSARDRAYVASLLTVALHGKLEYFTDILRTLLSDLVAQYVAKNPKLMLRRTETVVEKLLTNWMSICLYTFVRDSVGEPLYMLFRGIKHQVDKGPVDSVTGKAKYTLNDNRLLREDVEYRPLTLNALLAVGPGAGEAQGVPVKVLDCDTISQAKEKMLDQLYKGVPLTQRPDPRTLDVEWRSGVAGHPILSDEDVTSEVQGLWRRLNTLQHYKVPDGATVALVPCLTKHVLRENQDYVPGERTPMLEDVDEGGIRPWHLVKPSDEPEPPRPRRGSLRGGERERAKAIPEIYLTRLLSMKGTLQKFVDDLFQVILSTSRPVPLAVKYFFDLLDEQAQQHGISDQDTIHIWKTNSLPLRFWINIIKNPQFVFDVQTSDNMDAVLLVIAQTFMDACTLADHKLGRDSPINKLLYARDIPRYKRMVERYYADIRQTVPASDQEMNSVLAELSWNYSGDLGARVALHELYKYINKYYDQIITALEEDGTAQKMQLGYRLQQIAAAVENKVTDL
GST-cyto-plexinB1 (T1795A) (O43157, form named): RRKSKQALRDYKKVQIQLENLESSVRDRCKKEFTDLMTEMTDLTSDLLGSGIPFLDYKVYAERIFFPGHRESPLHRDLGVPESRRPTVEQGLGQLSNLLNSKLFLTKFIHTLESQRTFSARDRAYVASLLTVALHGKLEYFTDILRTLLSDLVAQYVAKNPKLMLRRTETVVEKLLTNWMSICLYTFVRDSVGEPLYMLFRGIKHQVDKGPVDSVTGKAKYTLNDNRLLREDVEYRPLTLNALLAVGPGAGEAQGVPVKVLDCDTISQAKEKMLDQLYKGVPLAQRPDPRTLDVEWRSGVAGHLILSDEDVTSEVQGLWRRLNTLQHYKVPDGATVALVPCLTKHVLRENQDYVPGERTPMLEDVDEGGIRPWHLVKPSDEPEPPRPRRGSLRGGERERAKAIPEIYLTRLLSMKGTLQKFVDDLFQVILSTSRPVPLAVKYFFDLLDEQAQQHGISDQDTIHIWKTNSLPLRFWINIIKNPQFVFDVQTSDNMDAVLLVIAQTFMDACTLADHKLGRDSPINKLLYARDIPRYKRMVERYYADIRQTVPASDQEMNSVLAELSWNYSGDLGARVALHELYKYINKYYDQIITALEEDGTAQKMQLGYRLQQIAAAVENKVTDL
GST-cyto-plexinB1 (T1697A) (O43157, form named): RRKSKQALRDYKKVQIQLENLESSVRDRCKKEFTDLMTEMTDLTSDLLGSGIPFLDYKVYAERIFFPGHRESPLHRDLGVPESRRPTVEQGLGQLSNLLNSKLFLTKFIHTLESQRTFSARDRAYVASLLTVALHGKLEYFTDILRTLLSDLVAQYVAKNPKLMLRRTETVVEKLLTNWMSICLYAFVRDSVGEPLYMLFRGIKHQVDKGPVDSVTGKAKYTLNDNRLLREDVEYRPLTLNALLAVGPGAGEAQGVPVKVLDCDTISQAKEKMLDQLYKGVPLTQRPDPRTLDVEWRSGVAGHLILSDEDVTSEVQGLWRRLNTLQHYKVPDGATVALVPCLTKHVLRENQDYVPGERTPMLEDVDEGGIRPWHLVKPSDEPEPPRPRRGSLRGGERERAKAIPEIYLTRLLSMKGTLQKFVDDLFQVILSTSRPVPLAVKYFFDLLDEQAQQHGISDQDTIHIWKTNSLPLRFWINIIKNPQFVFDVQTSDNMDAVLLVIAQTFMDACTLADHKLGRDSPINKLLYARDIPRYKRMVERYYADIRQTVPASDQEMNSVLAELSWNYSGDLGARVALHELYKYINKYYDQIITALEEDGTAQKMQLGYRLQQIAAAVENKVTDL

Assays:
Assay in all cases: pull-down; GST-fused cyto-plexinB1 (WT or mutant) on the matrix incubated overnight with lysates of cells expressing RhoD(G26V)-myc or RhoD(T31K)-myc; SDS-PAGE and immunoblotting; only the target purified
[1] = molecular target: GST-cyto-plexinB1 (L1815P) (UniProt O43157)
[2] = molecular target: GST-cyto-plexinB1 (T1795A) (UniProt O43157)
[3] = molecular target: GST-cyto-plexinB1 (wild type) (UniProt O43157)
[4] = molecular target: GST-cyto-plexinB1 (T1697A) (UniProt O43157)

- binding [1]: binds
- binding [2]: binds
- binding [3]: binds
- binding [4]: binds
B1: constitutively active RhoD(G26V)-myc (protein, UniProt O00212 1-210)
chain: MTAAQAAGEEAPPGVRSVKVVLVGDVGCGKTSLLMVFADGAFPESYTPTVFERYMVNLQVKGKPVHLHIWDTAGQDDYDRLRPLFYPDASVLLLCFDVTSPNSFDNIFNRWYPEVNHFCKKVPIIVVGCKTDLRKDKSLVNKLRRNGLEPVTYHRGQEMARSVGAVAYLECSARLHDNVHAVFQEAAEVALSSRGRNFWRRITQGFCVVT

- binding [3]: no binding
B2: dominant negative RhoD(T31K)-myc (protein, UniProt O00212 1-210)
chain: B1 chain with V26G, T31K
